This is one part of the list. At the low end of the ranking the order means little.
The sequences below were run against T1, GST-Rok (full length) (UniProt O34857) (assay: protein binding microarray). Conditions: Rok is a gene silencer of Bacillus subtilis; high values mean tight binding; most listed sequences are background and not binding sites; double strand, one strand shown.
T1 sequence: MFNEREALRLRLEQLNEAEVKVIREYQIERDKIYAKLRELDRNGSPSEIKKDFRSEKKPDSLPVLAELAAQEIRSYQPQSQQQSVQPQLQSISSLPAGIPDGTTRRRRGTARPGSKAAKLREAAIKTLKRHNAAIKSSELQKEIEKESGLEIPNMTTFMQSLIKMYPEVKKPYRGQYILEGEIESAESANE
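Further: rank score from −0.5 (least bound) to 0.5 (best bound).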

Sequence | binding signal [E-score]
AGACGGAC | -0.143
CCTAGTTA | 0.209
CTCCGGTA | -0.0803
AAGTGTCC | -0.0236
CTAGCCCC | -0.328
ATCATCGA | 0.0997
GGGCGGTA | -0.0377
CGACATCC | -0.173
ATTCCGCA | -0.027
GCGTGGGA | -0.158
TGCGCGCA | 0.0381
AGACGTAG | 0.069
ATCATAAT | 0.225
ACCTTGGG | -0.258
AAGACTAC | 0.119
GTTCTTCA | -0.00738
AGTTCATA | 0.0889
AGCACACC | -0.192
AGGCGATA | -0.0484
TGCACCCA | -0.0471
CTCCTCAA | -0.138
AACACTCA | -0.117
GCCAGCGC | -0.144
AAAGGTGT | -0.102
CTGTTGGA | -0.156

Sequence | binding signal [E-score]
AAAGGTCG | -0.231
ATTTAAAT | 0.284
AGCCTACG | -0.165
GTGCTACA | 0.06
TAGCCAAA | 0.155
TTGGACAA | -0.00671
CGCCTTAC | -0.136
AACATCAG | 0.188
CCACTGCG | -0.265
CCCTTACC | -0.244
GTGCCAGA | -0.263
TGCCTAAA | -0.0428
AGCATTAA | 0.2
TCAGACAA | 0.019
AATCACCG | -0.059
GGCTACGA | -0.273
CTGTTCAA | -0.171
ACGTGCGG | 0.0283
ATACTAGG | 0.225
CAAGCAAG | -0.112
AGAAGTTC | 0.0721
ATTCGATG | 0.146
AAATTGAA | 0.179
AGGATCAG | -0.0876
AACGGCCT | -0.354

Sequence | binding signal [E-score]
CTAGACAA | 0.122
ACATAATC | 0.237
GAGATGTA | 0.141
ATCTTGCA | 0.176
AGAAGACA | 0.0759
AAGACAAA | -0.0369
GTTTACGA | -0.0647
AACGACTT | 0.0518
AATTAGAA | 0.202
ACTTACAA | 0.176
AGGGTGTC | 0.0132
CCTTAATA | 0.108
AGGCAGGG | -0.289
CTCGGACA | -0.0506
AATGCGAC | 0.00857
CGTAGTGA | 0.191
ATACTTAC | 0.212
TCAAGTCA | -0.0697
AACGGCCA | -0.116
ACCGTGAC | 0.0309
GTTAAGCA | -0.062
AACCTACG | 9.3e-05
ACTGATCC | 0.0532
ATGATGCA | 0.0452
CATACATA | 0.366

Sequence | binding signal [E-score]
GATACCAC | -0.00878
GAGTTGTA | 0.272
ACATGAAC | 0.0571
TTGATAAA | 0.0496
TAGAGGGA | -0.275
AGAGAATC | -0.0562
GAAAGGGC | -0.273
AGCCCAAG | -0.222
AGTATTGA | 0.229
AAACAGTA | 0.253
CTTGTGTA | 0.0875
GCCATAGC | -0.0306
ACTCGAAG | -0.0857
CGCGACTA | 0.138
AATCGCGT | -0.0697
CTCGCGGC | -0.278
AAGATCAA | 0.16
CTCAAAAG | -0.292
GACGCTGA | -0.235
ATACCTCC | -0.0703
ACATGATC | 0.175
TGGCCTAA | -0.19
GGCGGCGA | -0.15
AATCTGGT | 0.0319
GCTCGGTA | 0.16

Sequence | binding signal [E-score]
CTGCGATA | 0.207
ACGGCTTG | -0.117
AGTTGCTG | 0.0511
TAAGGTCA | 0.00524
ATCCTCAA | 0.0862
AGGATGCC | -0.199
ATCTGCAT | 0.125
AAATTCAG | 0.123
CTTGGTGA | -0.164
ATTGTCAC | 0.0843
GCTTGGAA | -0.113
AAGTGCTC | -0.174
GGACGCAA | 0.0476
CGTCTGAA | -0.0353
AATTGGAA | -0.0286
GCTACCGA | 0.21
CAATCGCC | -0.27
ACCAAAGA | 0.122
CTTGTCGC | -0.229
GTCATTGA | -0.0517
CGAATTAC | 0.28
GCTTACTA | 0.0602
CAGGATCG | -0.19
CACTTATG | 0.124
GGCCATGA | -0.266

Sequence | binding signal [E-score]
ATGGTCGA | -0.126
AGACGTTC | -0.19
AAAGACAG | -0.0985
ATCCTAAG | -0.0403
CCCATCCA | -0.188
AAATGGAG | -0.0622
CTTGAGTC | 0.00957
ACGCCTAG | -0.0308
CATGGCCA | -0.114
CCCTTCGA | -0.254
CCTGGGGA | -0.19
CTGGAAAC | -0.105
ACCTATAA | 0.27
ATGGTATA | 0.381
CAGCCTAG | -0.19
CATTGCAA | 0.12
CGGACCTC | -0.43
CAGATTAG | 0.083
GTTCCTCA | -0.0987
CACAAGGC | -0.202
AAAATATA | 0.417
CGGTTACC | -0.0483
CCTATTCC | -0.0525
CAGATCAC | -0.0317
CCTGATAA | 0.026

Sequence | binding signal [E-score]
ACAAAGCA | 0.0377
CACGCGTC | -0.137
AAGTCTAA | -0.0172
CCCCTTTA | -0.328
CCACGCCC | -0.355
CTCTAGAC | -0.099
GGCAGCCC | -0.266
ATGGATGC | -0.00761
AAGTGGGT | 0.13
ATCTGGAA | 0.0658
TAGTGTAA | 0.253
GCTAGTAC | 0.181
TATGGTCA | -0.0127
AGGAAACT | -0.0373
GGCCCCAC | -0.333
GATCATCC | -0.211
AGAGTCCT | -0.248
AAGTAGTC | 0.194
AAGTCTAG | 0.128
CCTTCTTC | -0.327
AGCTCCTC | -0.0583
CCGAATTC | 0.0736
AGAAAGTC | 0.121
CCGATACG | -0.0891
GTTCTGCA | 0.00386

Sequence | binding signal [E-score]
CTTCCCGA | -0.182
AAATCACC | 0.0196
ACGGTAAG | 0.0516
ATAGTGGA | 0.179
TCCGAAAA | -0.0826
ACAAACGG | -0.00473
CCGTGCAG | -0.0228
CACCGAGG | -0.123
GTTTTAGA | 0.0208
CTTCTTCC | -0.353
TATGATGA | 0.215
ATCGGAAG | -0.123
AGGGTTTA | -0.0103
CAATAGAG | 0.0217
ACTTCTTA | 0.202
ACAAATGC | -0.0981
ATGATTAG | 0.0928
ACCCGGGA | -0.121
GAAGTTTA | 0.0113
AACGCGAC | -0.106
GGTTACGA | -0.13
AATCAACA | 0.125
CACGTCGG | -0.256
CCGTTACA | 0.106
CTTTCTGC | -0.0384

Sequence | binding signal [E-score]
AATTGCCG | 0.164
CGAACGAC | -0.132
AGCCGTCA | -0.275
CCCCGAAG | -0.218
AATCCCGT | -0.118
CAATGCAG | -0.0941
TACTTTAA | 0.308
GCACATAC | -0.0928
CCATGGCA | -0.142
CTATTCTC | -0.106
ACGATGCT | 0.156
GGTTGACA | -0.0593
CCATACTC | -0.0138
GAGCTACA | 0.0398
CAGGAGGG | -0.391
TAGGAGAA | 0.118
AGCTTTCG | -0.0148
GTTTGCGA | 0.0745
TGTAGTAA | 0.349
CCCACCTA | -0.2
ATCACTTG | 0.109
AGCCACCA | -0.0885
CCTGGAGC | -0.034
CGAATTCA | 0.109
CCTAGCCC | -0.254

Sequence | binding signal [E-score]
ACTTTTCG | 0.215
ACGGATCT | 0.096
AATAGTAT | 0.292
CCGCGCAG | -0.266
CAGGGGAG | -0.46
ACGAGTGC | -0.0689
CCCCCGCA | -0.399
ACGATTAA | 0.041
ACCCGGCC | -0.197
AGAGTGTA | 0.011
GGTGTTAA | -0.037
AACTCTGC | 0.137
GCGTGCCA | -0.295
AGGACACG | -0.0452
GTAAAGAC | 0.0578
CCCTGGAA | -0.226
ATGATGCG | 0.0798
CCACCATC | -0.165
ATGCCTTC | -0.125
TACGAACA | 0.202
CGGGCGGA | -0.281
GCTAGACC | -0.174
TAAGACCA | -0.0966
CGAGACAG | -0.142
AAGGGAGC | -0.376

Sequence | binding signal [E-score]
GTCCACGA | -0.228
AATGGGGG | -0.364
CCAGATTA | -0.1
CCTCCTTA | -0.0715
CGCTTCGC | -0.22
AGCATATA | 0.258
CGAACTCA | -0.00103
CCGAAGCC | -0.296
AGGAGACG | -0.263
ACGAAGCG | -0.0788
GAACCTAA | 0.0633
GCGTAGCC | -0.289
AGGCTACG | -0.263
CATCCACA | 0.0526
CACATCAG | -0.0252
CATCCCGG | -0.27
CAGCCGAA | -0.0198
GCCTGATA | -0.0265
ATAAACCG | 0.105
AGGCAAAT | 0.0934
ATAATAAG | 0.305
GCAAACCC | -0.0236
AAACCCGA | -0.202
CTCTTATA | 0.128
CGGTTCGA | -0.134

Sequence | binding signal [E-score]
CCTGTTTC | -0.0211
CGTTATGA | -0.0723
CCACAACG | -0.192
ACGTGCAG | -0.0273
AGACTATC | 0.0106
ACTAGACA | 0.054
GTGCCGGA | -0.299
CGGAGACA | -0.0534
CCTCCGAC | -0.284
TGTGTGAA | 0.0261
GTTTAGAA | 0.169
AAATGTCC | 0.0591
TAGACTGA | -0.0544
ACCCCGTG | -0.281
ACGAATGG | -0.0358
CTTGCAGC | -0.179
AACCCTAG | -0.0821
GATGGAAA | -0.128
ATGGGTGA | -0.0657
ATAGAGAG | -0.0418
CTTGCTAA | -0.132
CAGGCTCA | -0.237
AGATTCAA | 0.0974
AATCGGCT | -0.0365
AGCTGTTA | 0.0865

Sequence | binding signal [E-score]
AAACCTAT | 0.0862
CAACGCAC | -0.172
AAGTACAG | 0.272
CTATATTC | 0.353
CAGCCCAC | -0.257
AAAACAAA | -0.04
ACGTCTTC | -0.015
GAAAAATA | 0.279
AGGAGTGA | -0.183
AGGATACC | -0.0935
ATCGTCAC | -0.0049
CCAACCCG | -0.117
CACTATCC | -0.103
AAATTCGT | 0.226
TCTGACAA | -0.0142
GCCTTAGA | -0.0778
CGGATGCC | -0.207
AATGGTGA | 0.0186
GGTGCAAA | 0.0938
CAGTTCAA | 0.0497
ACCTCGGG | -0.0475
ACCTCGGC | -0.295
TGGAAACA | -0.0824
CCAAAAAA | 0.0994
ATTTAGTA | 0.363

Sequence | binding signal [E-score]
AAGACGAG | -0.145
CCCCCTGC | -0.339
TGCATGAA | 0.0378
ATGCGCAA | 0.0571
CGAGAGGA | -0.308
GAACATGC | 0.0287
CGCTCTTA | -0.109
CAGCTCAA | -0.0538
TAACCCCA | -0.179
CGTTGCTA | 0.158
GTATTCTA | 0.25
TCCCGCAA | 0.0872
ATTATCTA | 0.412
GAAGTTGA | -0.0345
AGTCAGCA | -0.0464
ACCTCAAC | -0.22
AAACTGCG | -0.00401
ATGTGCAC | 0.103
GTGCCTAA | -0.233
